Whole data set: some 33,000 sequences, median “E-score (-0.5 to 0.5)” near -0.054, cut for the highest 2% near 0.39. The list shows a part of the results.
target: Ylr278c (UniProt Q05854); test: PBM E-score (8-mer binding enrichment) (E-score (-0.5 to 0.5)); higher = stronger / more preferred TF binding; most listed sequences are background and not binding sites; details: protein concentration: 200 nM; construct: GST-DNA-binding domain
Procedure, shortened: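 Universal all-10-mer Agilent arrays, fresh or stripped once, were converted to double-stranded form by primer extension. GST-tagged yeast transcription factors from PURExpress in vitro transcription/translation, full-length or DNA-binding domain only, were applied at about 100-200 nM and detected with fluorescent anti-GST. After masliner normalisation, the Universal PBM Analysis Suite scored each ungapped eight-base word together with its reverse complement by E-score.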

Row | Sequence | PBM E-score
1 | GTGGGGCA | -0.062
2 | CTGTAGGC | -0.184
3 | TCTCATCA | -0.183
4 | CACGTTAC | -0.274
5 | CTTACTTA | -0.0395
6 | CTACACTA | -0.317
7 | GGTGTAAA | 0.0406
8 | ATAGTTAC | -0.0396
9 | ACAGGTCG | -0.14
10 | AACCAACC | -0.111
11 | AATTGTGG | -0.166
12 | ATGTCGTG | -0.292
13 | AGTTATAA | -0.195
14 | CTAATTCA | -0.226
15 | CGCATGTA | -0.0916
16 | CGTACAAG | -0.214
17 | AAGCTCGA | -0.043
18 | ACTGTTAC | -0.171
19 | CAGTGAAA | 0.0583
20 | ATGTCTGA | -0.181
21 | CATATTAA | -0.119
22 | ACAGCCGG | 0.322
23 | ACCAAGCA | -0.132
24 | AGTTATGC | 0.0232
25 | ACCGCCTA | 0.00883

Row | Sequence | PBM E-score
26 | ACAGCACC | 0.0761
27 | CCATTTTC | 0.0765
28 | GGTTTGGA | -0.029
29 | GTGAGGGA | -0.204
30 | TAAGCACA | 0.0569
31 | AATTCTGA | -0.119
32 | GTCCTCAA | -0.0761
33 | CGGGTCCC | 0.0308
34 | CAACGTCG | -0.147
35 | GACGCGGA | 0.291
36 | ATGTGCTC | -0.0292
37 | ATCCCATG | -0.121
38 | ATACACTC | 0.0208
39 | CTCAAGGC | -0.0516
40 | ATCCAGCA | -0.288
41 | CCGCATAC | 0.224
42 | GGTCAGCA | -0.0137
43 | GCGTATAC | -0.00732
44 | AGGAGAAC | -0.00067
45 | CGTTGTAC | -0.0956
46 | ATGGAGTA | 0.0152
47 | GGCAGAAA | 0.155
48 | CGCTAGTC | -0.161
49 | GTCCTCAC | -0.113
50 | CTCGTCTA | -0.164

Row | Sequence | PBM E-score
51 | AAGTACAC | -0.00177
52 | AAGCAATA | -0.0625
53 | ATAGGCCC | -0.0168
54 | AACGGCTA | -0.0515
55 | CAAAAGGA | -0.159
56 | CGCACATA | -0.0716
57 | AGAGAGCT | -0.15
58 | CCAGGCCG | 0.065
59 | AGTTGGGG | 0.00703
60 | ATTCAAGA | -0.13
61 | GACGAACA | 0.0976
62 | GAAAACCA | -0.182
63 | ATCGCATA | 0.00108
64 | ATGGGATA | -0.122
65 | TGACTCAA | -0.346
66 | ATCCAAAT | -0.0681
67 | GCGGGCCC | 0.222
68 | CCCTCTTC | -0.312
69 | ATTCCCAA | -0.06
70 | ACTGCTCA | -0.169
71 | GGTCCTTA | 0.0251
72 | AGATTCCG | 0.387
73 | ACATTAAC | -0.0113
74 | AGTTCCGC | 0.383
75 | ACGAGGAT | -0.319

Row | Sequence | PBM E-score
76 | CTCCTTAC | -0.209
77 | AGCGTCCT | -0.297
78 | GTTTTTCA | 0.135
79 | AACAGTAC | -0.104
80 | CTTGAGGC | -0.045
81 | ATTGTACA | -0.0426
82 | TTATGCAA | -0.333
83 | AAGTACGC | -0.18
84 | ACGCTGGC | -0.0381
85 | GTGACAGA | -0.121
86 | ACTGAACG | -0.187
87 | CGCCGGCA | 0.39
88 | CAAAGGCC | 0.101
89 | ACGGGCCA | 0.149
90 | GACTGTGC | -0.274
91 | CCCCTGCG | -0.137
92 | CCGACCCA | 0.268
93 | GAAACGAC | 0.0245
94 | AAAAAAAC | -0.0699
95 | ACCCCGTA | 0.214
96 | CAAGGACG | -0.118
97 | ACCTAACA | -0.0051
98 | GCTGCACA | -0.148
99 | ACTTGAGG | -0.0433
100 | AGACAGTG | -0.17

Row | Sequence | PBM E-score
101 | AGACTTTA | -0.217
102 | GAAATCTA | 0.123
103 | AGCACAGA | -0.0295
104 | ATGTCTGG | 0.112
105 | CCTGTCGC | -0.144
106 | AGAATTCT | 0.138
107 | AGGGAATG | -0.205
108 | CCTTTTTC | 0.00118
109 | GTAGTTTA | 0.0771
110 | GAATAGCA | -0.0928
111 | ACACAAAG | -0.233
112 | CAAGTATG | -0.255
113 | TCGAGCGA | 0.0809
114 | CAAATCAA | -0.167
115 | CCGCACAC | 0.0213
116 | AGATCGGA | 0.43
117 | CCTGATTA | 0.0108
118 | AATTGTCC | 0.149
119 | ACAGTACA | 0.0277
120 | ATGTGGCG | 0.137
121 | GCCCTCGC | -0.0909
122 | GTGTATAA | -0.181
123 | CCCGGGCC | 0.308
124 | CCGACTGA | 0.2
125 | CACACTCA | -0.138

Row | Sequence | PBM E-score
126 | CCGACGCC | 0.361
127 | AATAGGGT | -0.179
128 | AGCCTCCC | -0.0938
129 | ATACACTA | -0.122
130 | GAAGTCAA | -0.0583
131 | AGCCTTTC | -0.15
132 | ATTCAACA | -0.0965
133 | CCTTTAAC | -0.0118
134 | AATCCTTA | -0.194
135 | ATTCGCGA | 0.0332
136 | CCCCCCCG | -0.31
137 | AAAAGCCT | -0.224
138 | ATAGTCAT | -0.19
139 | CACGCTCC | 0.129
140 | CAGATATA | -0.131
141 | CGAATCCG | 0.352
142 | ATTCCAAT | -0.0304
143 | AAGGCGCG | -0.133
144 | ATGCAATC | -0.0874
145 | ATGGACTA | -0.18
146 | CGTATGAA | 0.0155
147 | CTTCTTTA | 0.0438
148 | CACACGAA | -0.114
149 | AAACCCGC | 0.287
150 | TGGTTACA | -0.27

Row | Sequence | PBM E-score
151 | ATACCTTC | 0.0292
152 | ACCAGAAG | -0.321
153 | ACAGACTA | -0.223
154 | CAGGCCGC | -0.0383
155 | GTAAATTA | -0.0254
156 | ACCTTCAG | -0.177
157 | CCGGCTCA | 0.317
158 | ATGCCGAG | 0.213
159 | ACTGAGAC | -0.221
160 | ATGGCTTC | -0.2
161 | ATTACGCC | -0.015
162 | AAATATCC | 0.125
163 | ACGCCGAC | 0.343
164 | CGGGTGGA | 0.0152
165 | TCGGTTAA | 0.258
166 | CTGCGAGC | 0.0649
167 | AACCGAAT | 0.133
168 | ATCTGTCA | 0.0135
169 | CTCGATTC | -0.0393
170 | GCAAGTAA | -0.0728
171 | ATTTCCGG | 0.475
172 | GTGTGGCA | -0.109

Source: the supplement of paper PMC3334620
